Reference: PubChem BioAssay AID1460 (National Center for Advancing Translational Sciences (NCATS), 2008)
In all, about 270,000 compounds went through this assay and about 5,800 (2.1%) were called active. The inconclusive results got no clear call from the source; some entries with a clear call stand among them for comparison. Calls come from the whole dose curve; as a rule, active = well fitted inhibition curve with a large enough effect; inconclusive = small, poorly fitted or top-dose-only effect; inactive = flat fitted curve, though single readings scatter. Potencies of inconclusive entries are doubtful fits and often do not repeat.
% is set by controls: 0 for no effect and ±100 for the full control effect; potency is the fitted concentration of half-maximal effect; tags give direction and shape of the fitted curve.
Note: nearly all actives have a fitted effect of over 55% in size.

What follows are compounds tested against Microtubule-associated protein tau (Homo sapiens) (UniProt P10636) (assay: qHTS for Inhibitors of Tau Fibril Formation, Thioflavin T Binding). Settings: recombinant tau K18 P301L (four-repeat tau fragment), heparin-induced fibrillization, ThT fluorescence; series mostly up to 57.4 µM; activity, negative = inhibition: at the top concentration.
Chain of UniProt P10636 (P10636 whole entry, looked up, the tested form may be a part): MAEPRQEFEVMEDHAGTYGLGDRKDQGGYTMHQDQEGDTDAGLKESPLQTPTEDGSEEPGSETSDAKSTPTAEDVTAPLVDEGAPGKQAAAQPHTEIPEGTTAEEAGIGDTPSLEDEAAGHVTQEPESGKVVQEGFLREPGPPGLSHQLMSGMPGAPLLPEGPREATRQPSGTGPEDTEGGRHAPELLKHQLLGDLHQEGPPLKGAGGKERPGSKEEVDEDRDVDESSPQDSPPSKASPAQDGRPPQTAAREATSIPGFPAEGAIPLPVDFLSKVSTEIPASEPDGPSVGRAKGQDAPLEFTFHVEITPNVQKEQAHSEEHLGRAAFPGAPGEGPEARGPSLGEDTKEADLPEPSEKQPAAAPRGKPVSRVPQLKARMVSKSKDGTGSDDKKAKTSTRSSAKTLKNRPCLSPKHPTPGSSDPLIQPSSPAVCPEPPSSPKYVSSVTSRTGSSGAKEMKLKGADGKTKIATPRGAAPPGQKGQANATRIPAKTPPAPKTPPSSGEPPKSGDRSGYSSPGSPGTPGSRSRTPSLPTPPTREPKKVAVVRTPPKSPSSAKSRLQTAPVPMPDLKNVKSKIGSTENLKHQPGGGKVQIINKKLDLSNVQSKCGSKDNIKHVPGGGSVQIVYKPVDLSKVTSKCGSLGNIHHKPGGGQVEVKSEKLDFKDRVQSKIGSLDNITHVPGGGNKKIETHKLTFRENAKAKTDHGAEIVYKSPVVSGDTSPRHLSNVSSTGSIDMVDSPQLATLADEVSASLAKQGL
Summary of the method: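 Aggregation was driven by heparin (20 uM final) acting on recombinant tau […] bearing P301L in 100 mM sodium acetate pH 7; fibrils were detected with Thioflavin T.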
In the case of COc1ccc(Cc2noc(-c3ccc(C)cc3)n2)cc1, the Potency is reported as inconclusive: 25.1 µM [inhibitor, single point].
In the case of O=C(C1CCN(S(=O)(=O)c2cccc3nsnc23)CC1)N1CCc2ccccc21, the Potency is reported as inconclusive: 12.6 µM [inhibitor, single point].
Cc1nc(-c2cccc(NC(=O)Nc3ccc([N+](=O)[O-])cc3)c2)no1 was tested, and the Potency was inconclusive: 11.2 µM [inhibitor, partial curve].
In the case of O=C1OCc2cc(-n3cccc3)ccc21, the Potency is reported as inconclusive: 14.1 µM [inhibitor, partial curve].
In the case of COC(=O)c1ccccc1NC(=O)c1ncoc1-c1ccco1, the “activity, negative = inhibition” value is reported as inactive: -2.94%.
CCn1c(C(=O)NCc2ccccc2C)cc2oc3ccccc3c21 was tested, and the Potency was inconclusive: 15.8 µM [inhibitor, partial curve].
For CCOC(=O)N1CCN(C(=O)Nc2ccc3nc(C)sc3c2)CC1, the Potency was inconclusive: 3.98 µM [inhibitor, full curve].
Cc1ccc2nc(N3CCN(Cc4nnnn4C4CCCC4)CC3)c(C#N)cc2c1 was tested, and the Potency was inconclusive: 25.1 µM [inhibitor, partial curve].
COC(=O)CCN(C1CCCCC1)S(=O)(=O)c1ccc(S(=O)(=O)N2CCCCC2)cc1 was tested, and the “activity, negative = inhibition” value was inactive: -11.2%.
In the case of CC(Sc1nnc(NC2CCCCC2)s1)C(=O)Nc1ccc2c(c1)C(=O)c1ccccc1C2=O (stereo unspecified), the Potency is reported as inconclusive: 22.4 µM [inhibitor, partial curve].
With O=C(CC1(O)C(=O)Nc2cc(Cl)cc(Cl)c21)c1ccccc1O (stereo unspecified) the Potency was inconclusive: 20 µM [inhibitor, partial curve, poor fit].
For COC(=O)c1ccc2c(=O)n(CCCCCC(=O)N3CCN(c4ccccc4)CC3)c(=O)[nH]c2c1, the Potency was inconclusive: 1.41 µM [inhibitor, full curve].
In the case of CCc1ccc(NC(=O)CSc2nccn2-c2ccc(OC)cc2)cc1, the “activity, negative = inhibition” value is reported as inactive: -2.75%.
For COc1ccccc1N1CCN(c2ccc([N+](=O)[O-])cc2Cl)CC1, the Potency was active: 8.91 µM.
With O=C1C(Cc2ccc3[nH]ccc3c2)NC(=S)N1c1ccccc1 (stereo unspecified) the Potency was inconclusive: 2.51 µM [inhibitor, partial curve, poor fit].
With CC(=O)N1CCCc2cc(S(=O)(=O)N3CCC(C(=O)NC4CCC(C)CC4)CC3)ccc21 (stereo unspecified) the “activity, negative = inhibition” value was inactive: 8.52%.
In the case of c1coc(-c2nc3ccccc3nc2-c2ccco2)c1, the Potency is reported as active: 15.8 µM.
For N/C(Cc1ccc([N+](=O)[O-])cc1)=N\OC(=O)c1ccc([N+](=O)[O-])cc1, the Potency was inconclusive: 20 µM [inhibitor, partial curve, poor fit].
In the case of CCN(CC)CCC(=O)Nc1ccc2c(c1)N(C(=O)CN(CC)CC)c1ccccc1CC2, the Potency is reported as inconclusive: 44.7 µM [inhibitor, single point].
In the case of CCC(CO)Nc1nc2ccc(Cl)cc2c2ccccc12 (stereo unspecified), the Potency is reported as inconclusive: 5.62 µM [inhibitor, single point].
Cc1cc(C)c([N+](=O)[O-])cc1NCC(=O)N1CCN(c2ccccc2)CC1 was tested, and the Potency was inconclusive: 3.16 µM [inhibitor, full curve].
In the case of O=C(c1cnn2c(C(F)(F)F)cc(-c3ccc(Br)cc3)nc12)N1CCOCC1, the “activity, negative = inhibition” value is reported as inactive: 0.121%.
With Cc1ccc(Nc2nnc(SCC(=O)c3ccc(Br)s3)s2)c(C)c1 the Potency was inconclusive: 31.6 µM [inhibitor, single point].
In the case of O=C(Nc1cccc(NC(=O)c2cccs2)c1)c1ccc2c(c1)OCO2, the Potency is reported as inconclusive: 7.08 µM [inhibitor, partial curve].
Cc1ccc(C(=O)Nc2cccc(OCc3cc(=O)n4c5c(sc4n3)CCCC5)c2)cc1 was tested, and the “activity, negative = inhibition” value was inactive: 2.72%.
With COc1cc(C(=O)N2CCN(c3ccc(Nc4ccc(C)cc4)nn3)CC2)cc(OC)c1OC the Potency was inconclusive: 35.5 µM [inhibitor, single point].
In the case of Cc1cc(/C=N/n2cnnc2)c(O)c([N+](=O)[O-])c1, the Potency is reported as active: 3.98 µM.
COc1c(-c2coc3cc4c(cc3c2=O)CC(O)C(C)(C)O4)ccc2c1C=CC(C)(C)O2 (stereo unspecified) was tested, and the “activity, negative = inhibition” value was inactive: -14.8%.
CCCn1c(-c2ccc(F)cc2)nc2c(NC3CC4CCC(C3)N4C)nc(C)nc21 (stereo unspecified) was tested, and the “activity, negative = inhibition” value was inactive: -0.568%.
Cc1cc(-c2nnc(SCC(=O)c3ccc4c(c3)OCCO4)o2)no1 was tested, and the Potency was inconclusive: 22.4 µM [inhibitor, single point].
For COc1ccc(C2=NOC(C(=O)N3CCCc4ccccc43)C2)cc1 (stereo unspecified), the “activity, negative = inhibition” value was inactive: -6%.
With COc1ccc(CCNC(=O)c2cc(-c3cc(C)ccc3O)n[nH]2)cc1OC the Potency was inconclusive: 3.16 µM [inhibitor, full curve].
For O=[N+]([O-])c1ccc(O)c(C=Nc2ccc3oc(Cc4ccc(Cl)cc4)nc3c2)c1, the Potency was inconclusive: 28.2 µM [inhibitor, partial curve].
In the case of CC1CCC/C(=C\Nc2ccc(C(=O)O)cc2)C1=O (stereo unspecified), the Potency is reported as inconclusive: 35.5 µM [inhibitor, single point].
For CCn1ncc(NC(=S)Nc2ccc3c(c2)OCO3)c1C(N)=O, the Potency was inconclusive: 35.5 µM [inhibitor, single point].
In the case of N=C1/C(=C\c2ccc(-c3cccc(Cl)c3)o2)C(=O)N=C2SC=C(c3ccccc3)N12, the “activity, negative = inhibition” value is reported as inactive: 0.925%.
For Cc1cc(Cl)n2nc(C)c(-c3ccc(Cl)cc3)c2n1, the Potency was inconclusive: 17.8 µM [inhibitor, single point].
In the case of O=C(Nc1nc2n(n1)C(c1ccc(F)cc1)C=C(c1ccccc1)N2)c1ccc(Cl)cc1 (stereo unspecified), the Potency is reported as inconclusive: 6.31 µM [inhibitor, partial curve].
O=c1c2ccccc2cnn1Cc1n[nH]c(=S)n1-c1cc(Cl)cc(Cl)c1 was tested, and the Potency was inconclusive: 44.7 µM [inhibitor, single point].
In the case of COc1cc(OC)cc(-n2nnnc2SCC(=O)Nc2nc3c(s2)CCCC3)c1, the Potency is reported as inconclusive: 31.6 µM [inhibitor, single point].
O=C(NC(NNc1ccc([N+](=O)[O-])cc1)(C(F)(F)F)C(F)(F)F)c1ccc(F)cc1 was tested, and the Potency was inconclusive: 28.2 µM [inhibitor, single point].
COc1ccc(NS(=O)(=O)c2ccc(O)c(C(=O)OCC(=O)N3CC(C)OC(C)C3)c2)cc1 (stereo unspecified) was tested, and the “activity, negative = inhibition” value was inactive: 3.72%.
In the case of CCCOc1ccc(N2C(=O)CC(N(Cc3ccc(S(N)(=O)=O)cc3)C(=O)CC)C2=O)cc1 (stereo unspecified), the “activity, negative = inhibition” value is reported as inactive: -0.156%.
OCCN1CCN(CC/C=C2/c3ccccc3Sc3ccc(C(F)(F)F)cc32)CC1 was tested, and the Potency was inconclusive: 39.8 µM [inhibitor, single point].
With NC(=O)CSc1oc(-c2ccco2)nc1S(=O)(=O)c1ccc(Cl)cc1 the Potency was inconclusive: 14.1 µM [inhibitor, single point].
Cc1ccc(N=C2NC(=O)/C(=C/c3cccn3C)S2)c(C)c1 was tested, and the Potency was inconclusive: 15.8 µM [inhibitor, partial curve, poor fit].
Oc1ccc(-c2nc3ncccn3c2Nc2ccc3c(c2)OCO3)cc1 was tested, and the Potency was inconclusive: 17.8 µM [inhibitor, partial curve].
With Cc1ccc(N=C2NC(=O)/C(=C/c3cccs3)S2)cc1C the Potency was inconclusive: 25.1 µM [inhibitor, partial curve].
In the case of CCOC(=O)CSc1nsc(SCC(=O)OCC)c1C#N, the Potency is reported as inconclusive: 17.8 µM [inhibitor, partial curve].
CCn1c2ccccc2c2cc(NC(=O)COC(=O)Cc3cn4ccsc4n3)ccc21 was tested, and the Potency was inconclusive: 39.8 µM [inhibitor, partial curve].
CCOC(=O)c1c(C)oc2nc(C)nc(NCc3ccc(OC)cc3OC)c12 was tested, and the Potency was inconclusive: 39.8 µM [inhibitor, single point].
For COC(=O)c1cccnc1-n1c(=O)c2cccnc2n(CC(=O)Nc2ccccc2F)c1=O, the “activity, negative = inhibition” value was inactive: -3.85%.
In the case of CCCCNC(=O)C1CCC(Cn2c(=O)c3sccc3n(CC(=O)N3CCCC3)c2=O)CC1 (stereo unspecified), the Potency is reported as inconclusive: 0.0224 µM [activator, full curve, poor fit].
For Cc1nc(SCC(=O)O)c(C#N)c(C)c1CC(=O)c1ccccc1, the “activity, negative = inhibition” value was inactive: -6.64%.
With Cc1cc(NC(=O)CSc2ccc3ccccc3c2)no1 the Potency was inconclusive: 22.4 µM [inhibitor, partial curve, poor fit].
Clc1cccc(-n2ncc3c(N4CCC(Cc5ccccc5)CC4)ncnc32)c1 was tested, and the Potency was inconclusive: 2.24 µM [inhibitor, full curve, poor fit].
With CCCCCn1c(=O)c(-c2nc3ccccc3[nH]2)c(O)c2ccccc21 the “activity, negative = inhibition” value was inactive: -8.92%.
CC1(C)CC(=O)C(C(C2=C(O)CC(C)(C)CC2=O)c2ccc(Cl)c([N+](=O)[O-])c2)C(=O)C1 (stereo unspecified) was tested, and the Potency was inconclusive: 20 µM [inhibitor, partial curve].
For Cc1[nH]n(-c2ccccc2)c(=O)c1C(c1ccccc1C(=O)O)c1c(C)[nH]n(-c2ccccc2)c1=O, the Potency was inconclusive: 15.8 µM [inhibitor, single point].
For Nc1ccc(N2CCN(c3ncc(C(F)(F)F)cc3Cl)CC2)c(C(F)(F)F)c1, the Potency was active: 20 µM.
Cc1cccc(Nc2nc(CC(=O)O)cs2)c1 was tested, and the Potency was inconclusive: 25.1 µM [inhibitor, single point].
In the case of CCOC(=O)c1c(NC(=O)c2cc(-c3ccc(O)cc3)on2)sc(C(C)=O)c1C, the “activity, negative = inhibition” value is reported as inactive: -2.73%.
With COc1cccc(N2CCN(S(=O)(=O)c3ccc(-n4cnnn4)cc3)CC2)c1 the “activity, negative = inhibition” value was inactive: 2.9%.
COc1ccc2c(C)cc(SCC(=O)Nc3nsc(-c4ccccc4C)n3)nc2c1 was tested, and the Potency was inconclusive: 0.141 µM [inhibitor, full curve, poor fit].
In the case of Cc1cc(C(=O)NC(=S)Nc2cccc(NC(=O)C(C)C)c2)ccc1[N+](=O)[O-], the Potency is reported as inconclusive: 39.8 µM [inhibitor, single point].
For CCOc1ccc(NCc2cc3c(C(C)(C)C)nn(-c4ccccc4)c3[nH]c2=O)cc1, the Potency was inconclusive: 25.1 µM [inhibitor, partial curve].
